{"source": "patent US20250091990A1", "about": "“DEUTERATED ORGANIC COMPOUNDS AND USES THEREOF” (ENGRAIL THERAPEUTICS, INC., priority 2022, published 2025)", "key": {"[1]": {"biological_target": "T1, human Serotonin 5-HT2A receptor (Homo sapiens, UniProt P28223)", "T1 construct": "expressed in transfected cells; host or cells: CHO-K1", "T1 sequence (P28223 whole entry)": "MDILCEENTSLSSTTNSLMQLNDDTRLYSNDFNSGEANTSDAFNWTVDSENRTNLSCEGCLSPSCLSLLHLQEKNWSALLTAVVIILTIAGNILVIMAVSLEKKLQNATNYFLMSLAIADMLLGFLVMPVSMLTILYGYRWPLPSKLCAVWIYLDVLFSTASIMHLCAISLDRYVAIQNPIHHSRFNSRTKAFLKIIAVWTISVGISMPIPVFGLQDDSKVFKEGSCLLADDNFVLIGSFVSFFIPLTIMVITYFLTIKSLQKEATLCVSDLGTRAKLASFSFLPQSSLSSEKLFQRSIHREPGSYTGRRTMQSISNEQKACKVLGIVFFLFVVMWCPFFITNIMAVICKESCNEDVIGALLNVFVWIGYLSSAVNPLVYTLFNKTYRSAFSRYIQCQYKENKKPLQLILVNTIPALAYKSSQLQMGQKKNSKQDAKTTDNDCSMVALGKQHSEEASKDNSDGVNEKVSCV", "assay": "Radioligand binding competition, filtration binding assay, 5-HT2A (labeled ketanserin)", "conditions": "for Ki: CHO-K1 membranes"}, "[2]": {"biological_target": "T1, human Serotonin 5-HT2A receptor", "assay": "IPOne HTRF assay, antagonist mode, 5-HT2A", "assay_type": "cell-based", "conditions": "IP-one"}, "[3]": {"biological_target": "T1, human Serotonin 5-HT2A receptor", "assay": "IPOne HTRF assay, agonist mode, 5-HT2A", "assay_type": "cell-based", "conditions": "IP-one"}, "[4]": {"conditions": "[3H]-Ketanserin, average where marked c, read-out: Binding 5-HT2A IC50"}, "[5]": {"conditions": "numbers in parentheses that were averaged, read-out: Binding 5-HT2A IC50, single determinations"}, "[6]": {"conditions": "average where marked c, read-out: 5-HT2A (agonist mode) EC50"}, "[7]": {"conditions": "numbers in parentheses that were averaged, read-out: 5-HT2A (agonist mode) EC50, single determinations"}}, "note": "Where “and” joins values, the source holds several entries; their conditions need not be identical. Equal values may be shown once. Read-outs that look alike come from different tables or passages of the source.", "data": [{"smiles": "CNc1cc(OC)c(C(=O)N[C@@H]2CCN(Cc3ccccc3)[C@@H]2C)cc1Cl", "note": "[cis (R,R) nemonapride, N-[(2R,3R)-1-benzyl-2-methylpyrrolidin-3-yl]-5-chloro-2-methoxy-4-(methylamino)benzamide]", "values": [{"measurement": "Ki", "setting": "[1]; [3H]-Ketanserin", "value": 3.3, "unit": "nM"}, {"measurement": "IC50", "setting": "[1]; [4]", "value": 14.5, "unit": "nM"}, {"measurement": "IC50", "setting": "[1]; [5]", "value": "19.4 nM and 9.7 nM"}, {"measurement": "IC50", "setting": "[2]", "value": "> 3000", "unit": "nM"}, {"measurement": "EC50", "setting": "[3]; [6]", "value": 3.4, "unit": "nM"}, {"measurement": "EC50", "setting": "[3]; [7]", "value": "4.4 nM and 2.9 nM and 4.8 nM and 1.6 nM"}]}, {"smiles": "[2H]C([2H])([2H])Nc1cc(OC)c(C(=O)N[C@@H]2CCN(C([2H])([2H])c3ccccc3)[C@@H]2C)cc1Cl", "note": "[Example 1, 5-Chloro-N-((2R,3R)-1-(dideutero(phenyl)methyl)-2-methylpyrrolidin-3-yl)-2-methoxy-4-(trideuteromethylamino)benzamide]", "values": [{"measurement": "Ki", "setting": "[1]; [3H]-Ketanserin", "value": 7.4, "unit": "nM"}, {"measurement": "IC50", "setting": "[1]; [4]", "value": 32.9, "unit": "nM"}, {"measurement": "IC50", "setting": "[1]; [5]", "value": "45.2 nM and 20.5 nM"}, {"measurement": "IC50", "setting": "[2]", "value": "> 3000", "unit": "nM"}, {"measurement": "EC50", "setting": "[3]; [6]", "value": 4.9, "unit": "nM"}, {"measurement": "EC50", "setting": "[3]; [7]", "value": "4.3 nM and 1.5 nM and 9.1 nM and 4.9 nM"}]}, {"smiles": "CNc1cc(OC)c(C(=O)N[C@H]2CCN(Cc3ccccc3)[C@H]2C)cc1Cl", "note": "(racemic) [Nemonapride, (±)-cis-N-(1-Benzyl-2-methylpyrrolidin-3-yl)-5-chloro-2-methoxy-4-methylaminobenzamide]", "values": [{"measurement": "Ki", "setting": "[1]; [3H]-Ketanserin", "value": 2.3, "unit": "nM"}, {"measurement": "IC50", "setting": "[1]; [4]", "value": 10, "unit": "nM"}, {"measurement": "IC50", "setting": "[2]", "value": 6.5, "unit": "nM"}, {"measurement": "EC50", "setting": "[3]; [6]", "value": 5.5, "unit": "nM"}]}]}
